A word on the % Inhibition: it is the change of the read-out against control, counted positive when it falls.

Screen size: about 150,000 compounds; about 540 (0.36%) showed an effect of 50% or more. The list shows a part of the results.

The results in this text go back to ChEMBL document CHEMBL4888484, “Replenishing the malaria drug discovery pipeline: Screening and hit evaluation of the MMV Hit Generation Library 1 (HGL1) against asexual blood stage Plasmodium falciparum ,using a nano luciferase reporter read-out” (2022).

The subject of the assay is Plasmodium falciparum. As to the kind of experiment: Primary screen in NF54 nanoGlo assay, in single point, at 2uM, 72h; a lower Z score goes with more inhibition. The class given is functional, Erythrocyte. The settings on record: timepoint 72 hour.
Take `Cc1cc2ccccc2n1CC(=O)N1CCC[C@H]1c1nc2ccccc2s1`: the “% Inhibition” value worked out at 13% and the Z score is given as -1.68.
In the case of `COc1ccc(CC(=O)N[C@H]2CCN(c3cc(C)cc(C)c3)C2=O)cc1Cl`, the “% Inhibition” value is -4% and the Z score is reported as 0.62.
`CCc1nc2c(s1)[C@@H](NCc1nnc3n1CCCC3)CCC2`: the “% Inhibition” value is -3% and the Z score is on record as 0.37.
Regarding `CC[C@@H](C(=O)NC1(CO)CCCCC1)N(C)CC`, the “% Inhibition” value is on record as -17% and the Z score is 2.12.
As for `CC(C)n1cc(CN2CCC3(CCC(=O)N(CCc4ccccc4)C3)CC2)cn1`, the “% Inhibition” value is 3% and the Z score is -0.52.
The corresponding values for `CN(CCN(C)C1CCCC1)Cc1cccc2cc[nH]c12` are -11% and 1.38.
With `CN(Cc1ccc(C(=O)N(C)C)o1)CC1(CO)CCC1`, the “% Inhibition” value is given as -11% and the Z score came out at 0.96.
Regarding `CCc1nc(-c2ccccc2)nc(N2CCN(C(=O)c3cccs3)CC2)c1Cc1ccc(C)cc1`, the “% Inhibition” value was -21% and the Z score was found to be 1.83.
`Cc1ccc(CC(=O)N2CCC3C(CCC(=O)N3C3CC3)C2)cn1` (centres undefined): the “% Inhibition” value is -12% and the Z score was 1.01.
In the case of `Cn1cc(C(F)(F)F)nc1[C@H]1CCCN(C(=O)Cc2ccnn2C)C1`, the “% Inhibition” value is -10% and the Z score came out at 1.36.
In the case of `Cc1cc(S(=O)(=O)N[C@H]2COC[C@@H]2N2CCOCC2)c2ncccc2c1`, the “% Inhibition” value was -4% and the Z score was 0.8.
Take `NC(=O)[C@H]1CC=CC[C@@H]1NC(=O)c1cccc(N)n1`: the “% Inhibition” value is given as -5% and the Z score was found to be 0.87.
Take `Cc1nc(CCCC(=O)N2CCCC(C)C2CN)cs1` (centres undefined): the “% Inhibition” value is -10% and the Z score was 1.38.
`CC(C)C[C@H]1C[C@@H](C(=O)NCc2ccccc2)[C@]2(N1)C(=O)Nc1ccccc12`: the “% Inhibition” value came to 6% and the Z score is recorded as -1.1.
For `CC(=O)N1CCN(c2nnc(-c3ccccc3F)[nH]2)CC1`, in that order: -3% and 0.4.
The corresponding values for `COC[C@@H]1[C@H](C(=O)N2CCCc3ccccc32)CCC(=O)N1C` are 0% and 0.03.
In the case of `CC(=O)c1cccc(NC(=O)Cn2nc3c(N4CCN(c5ccc(C)cc5)CC4)nccn3c2=O)c1`, the “% Inhibition” value is -21% and the Z score came to 2.03.
For the compound `Cc1ccc(C)n1CC(=O)NC[C@H]1CCCN2CCCCC12` (some centres undefined), the “% Inhibition” value was -6% and the Z score was determined as 0.77.
In the case of `O=S(=O)(NCc1nc2cccnc2n1C1CCCC1)c1ccc(Cl)cc1`, the “% Inhibition” value is 0% and the Z score is on record as -0.04.
As for `CCOC(=O)N1CCN(C(=O)c2cnc(N(C)C)nc2C)CC1`, the “% Inhibition” value was -10% and the Z score is 1.68.
In the case of `O=C(NC1CCCCCCC1)[C@@H]1CCCN1C(=O)c1ccco1`, the “% Inhibition” value was -6% and the Z score worked out at 0.58.
Regarding `Cc1ccc(-c2nc(CCN(C)C)no2)c(C)c1`, the “% Inhibition” value is listed as -11% and the Z score is 1.45.
For the compound `Cn1c(C(=O)NCC2CCCN3CCCC[C@H]23)cc2c(Cl)cccc21` (some centres undefined), the “% Inhibition” value is on record as -1% and the Z score worked out at 0.11.
The corresponding values for `N[C@H]1CCN(C(=O)c2cnn(-c3ncccc3Cl)c2C(F)(F)F)C1` are -2% and 0.24.
`COc1cc(CNCc2ccco2)ccc1OCc1cccc(C)c1`: the “% Inhibition” value is listed as 36% and the Z score is listed as -4.78.
On to `CC(CNC(CC1CCCCC1)c1ncccn1)N1CCOCC1` (centres undefined), for which the “% Inhibition” value was -1% and the Z score stood at 0.18.
The corresponding values for `O=C(Nc1ccc(Oc2ccccc2)c(Cl)c1)N1CCOC[C@@H](CO)C1` are -7% and 1.02.
`CC(C)(CNC(=O)N1CCC(c2ccon2)CC1)c1c(F)cccc1Cl`: the “% Inhibition” value is recorded as -4% and the Z score came out at 0.63.
The corresponding values for `COC(=O)C[C@@H]1Oc2ccccc2N(CCOCc2ccccc2)C1=O` are 15% and -1.86.
In the case of `CC(C)N1C[C@@H](c2nc(-c3ccc(Br)o3)no2)CC1=O`, the “% Inhibition” value is listed as -10% and the Z score was 1.3.
The corresponding values for `CC1CCCC(CCNS(=O)(=O)N2CCCC(C)C2)C1` (centres undefined) are -2% and 0.4.
Turning to `Cc1onc(-c2cccs2)c1C(=O)N(C)CCN(C)c1ccc(S(N)(=O)=O)cc1`, the “% Inhibition” value was -3% and the Z score is on record as 0.48.
As for `CCC(C)c1ccc(C(NC(=O)CN(C)S(C)(=O)=O)C(C)C)cc1` (centres undefined), the “% Inhibition” value came out at 12% and the Z score is on record as -1.49.
Turning to `Cc1ccc([C@@H]2CC(C3CCCCC3)=NN2S(C)(=O)=O)cc1`, the “% Inhibition” value is recorded as -6% and the Z score is 1.11.
Take `COc1ccnc(CN2CCC[C@H]2C(=O)N2CCCCC2)c1`: the “% Inhibition” value was -9% and the Z score was determined as 1.69.
Turning to `Cc1ccn(CCN2C[C@@](C)(c3ccccc3)CCC2=O)n1`, the “% Inhibition” value is reported as -3% and the Z score is recorded as 0.36.
Regarding `Cc1nc2ccccn2c1CN1CCCC[C@H]1C(=O)N1CCOCC1`, the “% Inhibition” value is recorded as -1% and the Z score stood at 0.09.
The corresponding values for `O=C(c1cnccn1)N1CC(c2nc(-c3cccs3)no2)C1` are -11% and 2.12.
Regarding `Cc1nccn1-c1ccc(F)cc1CNCc1cccc2cn[nH]c12`, the “% Inhibition” value is on record as -14% and the Z score was 1.65.
The corresponding values for `COC[C@H](C)n1c(=O)ncn1-c1cc(C)ccc1C` are -3% and 0.44.
Take `Cc1nc(N2CCC[C@H](C(=O)NCc3ccccn3)C2)c2c(C)c(C)oc2n1`: the “% Inhibition” value is recorded as 5% and the Z score is recorded as -0.53.
In the case of `Cc1ccccc1CNC(=O)[C@H]1CCCN(c2ccnc(-c3cccc(F)c3)n2)C1`, the “% Inhibition” value is given as -12% and the Z score came to 1.4.
